The list shows a part of the results. At the low end of the ranking, values are background and their order means little.

This assay deals with T1, GST-Rok-C97-191 (UniProt O34857).
T1 sequence: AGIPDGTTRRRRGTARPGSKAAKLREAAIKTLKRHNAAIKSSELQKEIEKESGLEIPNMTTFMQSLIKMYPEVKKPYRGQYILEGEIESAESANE
Put plainly: protein binding microarray.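 Further: rank score from −0.5 (least bound) to 0.5 (best bound).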 As to conditions: Rok is a gene silencer of Bacillus subtilis; high values mean tight binding; most listed sequences are background and not binding sites; double strand, one strand shown.
With AAGCACGG, the binding signal is -0.0503 E-score.

CAGACATA returned a binding signal of 0.183 E-score.

Sequence TCTTATCA yielded a binding signal of 0.163 E-score.

In turn, TGCGCAAA displayed a binding signal of -0.0259 E-score.

Sequence AGGTTACT returned a binding signal of -0.00121 E-score.

In the case of AGAGCGCC, the binding signal is -0.233 E-score.

On to TGAGTCCA, for which the binding signal is -0.0978 E-score.

As to GTTGAAAC, the binding signal stood at 0.109 E-score.

GCGCTATA displayed a binding signal of 0.22 E-score.

Turning to CGGCCCTC, the binding signal is -0.334 E-score.

AGTTGACA came in with a binding signal of -0.0085 E-score.

Consider ATGGGGCC, for which the binding signal was -0.169 E-score.

Take AGCTCTGG: the binding signal was -0.124 E-score.

The sequence AAACGACG returned a binding signal of -0.102 E-score.

The sequence AAACCCGC gave a binding signal of -0.173 E-score.

ATACTTGA came in with a binding signal of 0.182 E-score.

In turn, ACGTGAGA returned a binding signal of 0.0082 E-score.

The sequence ATGTTGGC showed a binding signal of -0.0609 E-score.

ATTGGCAC gave a binding signal of 0.044 E-score.

The sequence TATACTGA displayed a binding signal of 0.213 E-score.

Sequence AATCAGGC yielded a binding signal of 0.233 E-score.

On to GTGACTTA, for which the binding signal amounted to 0.0387 E-score.

Take CAATGGTC: the binding signal is -0.0277 E-score.

Regarding CAATAAAC, the binding signal came to 0.0505 E-score.

GCATGCCA: the binding signal was -0.34 E-score.

With CAGTATCA, the binding signal was 0.0403 E-score.

CTCTACGA: the binding signal was found to be 0.107 E-score.

CGTGTCGC had a binding signal of -0.0215 E-score.

ATGAAGAG came in with a binding signal of -0.149 E-score.

With ACCGTAAG, the binding signal was 0.0939 E-score.

As for GGCGATAC, the binding signal was determined as 0.0323 E-score.

Sequence ACATCCCT came in with a binding signal of -0.0424 E-score.

Sequence TGAATGAA came in with a binding signal of -0.0301 E-score.

GGACTTCA had a binding signal of -0.105 E-score.

In the case of CATAGTAG, the binding signal amounted to 0.195 E-score.

As to AAGGACTG, the binding signal was -0.0637 E-score.

As to GTGTCCGA, the binding signal was -0.14 E-score.

For ATCCGGTG, the binding signal stood at 0.0546 E-score.

In the case of AAGTAAGT, the binding signal stood at 0.263 E-score.

Take GTGGACGA: the binding signal is -0.186 E-score.

On to CGAAACCG, for which the binding signal was -0.0705 E-score.

AGGAATAG returned a binding signal of -0.141 E-score.

For the sequence AACCGGAT, the binding signal was -0.122 E-score.

For ATCCCGAC, the binding signal was -0.134 E-score.

In turn, GCCCCTCA registered a binding signal of -0.117 E-score.

In the case of GATGGCTA, the binding signal was -0.111 E-score.

As for CTAGGGGA, the binding signal is -0.354 E-score.

For AAGGGGTC, the binding signal is -0.19 E-score.

CGCATGCC returned a binding signal of -0.295 E-score.

With AGAGAACA, the binding signal turned out to be 0.142 E-score.

Sequence GTTCGTTA registered a binding signal of 0.0459 E-score.

Turning to CGTGAGCA, the binding signal is -0.11 E-score.

CATTACGC displayed a binding signal of 0.0562 E-score.

Consider CGTAGGAA, for which the binding signal came to 0.155 E-score.

In the case of ACTGACGA, the binding signal amounted to 0.1 E-score.

As for ACGATCGT, the binding signal was -0.0944 E-score.

As for ACCCTATC, the binding signal was 0.107 E-score.

Sequence GACTCATC had a binding signal of -0.033 E-score.

TAAAGCGA returned a binding signal of -0.163 E-score.

Regarding ACAACAAG, the binding signal amounted to 0.0212 E-score.

CTCTCAGA displayed a binding signal of -0.0688 E-score.

With AGATAATC, the binding signal was 0.157 E-score.

For the sequence CTAACAGC, the binding signal is -0.0319 E-score.

GCTAAATA yielded a binding signal of 0.32 E-score.

For AACATCGT, the binding signal was 0.00842 E-score.

For the sequence ATGTGCTA, the binding signal came to 0.107 E-score.

Sequence CGGAACAG displayed a binding signal of -0.0903 E-score.

Consider CCAGCTAC, for which the binding signal stood at 0.00265 E-score.

Consider CATCTACA, for which the binding signal amounted to 0.0976 E-score.

For the sequence GTTTCACA, the binding signal is -0.104 E-score.

Take CGGCTACA: the binding signal was -0.00931 E-score.

As for CGGAGCAC, the binding signal is -0.152 E-score.

Turning to AATTTATG, the binding signal turned out to be 0.209 E-score.

Sequence ACCATCCA yielded a binding signal of -0.091 E-score.

As to ATTGACAC, the binding signal is 0.0674 E-score.

CGTTTAGC showed a binding signal of 0.00399 E-score.

Take AGTAGAGA: the binding signal is 0.206 E-score.

For the sequence TGGGCAAA, the binding signal came out at 0.0179 E-score.

Consider ACCGCATC, for which the binding signal is -0.105 E-score.

CAGCTGAG gave a binding signal of -0.23 E-score.

The sequence AAGTCTTC had a binding signal of 0.048 E-score.

TACCAAAA returned a binding signal of 0.188 E-score.

For AGATGACG, the binding signal was -0.217 E-score.

In turn, GATAACAC showed a binding signal of 0.29 E-score.

For the sequence CCACCCAC, the binding signal is -0.151 E-score.

CTTCGTGA had a binding signal of -0.0355 E-score.

Regarding TCTGCACA, the binding signal is -0.141 E-score.

Sequence GGCAATAC returned a binding signal of -0.0605 E-score.

Take CACAGTTA: the binding signal was found to be 0.153 E-score.

Sequence GGCTTCCC yielded a binding signal of -0.38 E-score.

For CACGGCCG, the binding signal was -0.211 E-score.

The sequence CGTAGTCA returned a binding signal of -0.102 E-score.

As for ATATTGCG, the binding signal was determined as 0.213 E-score.

As for GGCCGTAC, the binding signal stood at 0.0378 E-score.

AAAATTCA displayed a binding signal of 0.0675 E-score.

For AGGCCAGA, the binding signal was -0.127 E-score.

ACATCACA: the binding signal turned out to be 0.057 E-score.

ACAAATGA returned a binding signal of 0.0821 E-score.

Turning to CCCGCTAC, the binding signal is -0.0971 E-score.

The sequence AATAACAG returned a binding signal of 0.0809 E-score.

With ATGTCCTG, the binding signal was -0.123 E-score.

In the case of CACCGCGC, the binding signal is -0.111 E-score.

Take GACGTGTA: the binding signal stood at 0.0493 E-score.

In turn, AATGCTGC returned a binding signal of -0.0908 E-score.

ATTGAGAG had a binding signal of 0.0103 E-score.

For ATAAACGC, the binding signal stood at 0.1 E-score.

GGAGGCAA had a binding signal of -0.106 E-score.

Consider GCTTATCC, for which the binding signal is -0.0892 E-score.

For GCGTATGA, the binding signal amounted to 0.208 E-score.

For the sequence ATGGGACA, the binding signal is -0.107 E-score.

CACATCGC gave a binding signal of -0.12 E-score.

For AATCCATA, the binding signal amounted to 0.114 E-score.

In turn, GCGCCAAC gave a binding signal of -0.216 E-score.

Take CATTACCC: the binding signal stood at 0.0982 E-score.

AATGGCCA registered a binding signal of 0.0996 E-score.

Sequence CACTGTTC displayed a binding signal of -0.112 E-score.

Sequence GAAGGAGA showed a binding signal of -0.109 E-score.

With CCTACCTC, the binding signal was determined as 0.0789 E-score.

As for GAGGCGCC, the binding signal was -0.288 E-score.

ATCGAGAC gave a binding signal of -0.325 E-score.

For the sequence ACCCCCGC, the binding signal is -0.246 E-score.

On to ATATTTGG, for which the binding signal came out at 0.114 E-score.

For the sequence CGGTTTGC, the binding signal came to 0.138 E-score.

In turn, TCCGCTAA came in with a binding signal of 0.189 E-score.

Regarding CTAGAAAG, the binding signal came to 0.113 E-score.

As to AGACGCGA, the binding signal was -0.189 E-score.

Regarding AAACTTGA, the binding signal was determined as 0.156 E-score.

ACCTCCTC showed a binding signal of -0.153 E-score.

Consider ATACTTTA, for which the binding signal stood at 0.196 E-score.

On to CAGGGTGC, for which the binding signal is -0.228 E-score.

CGGCGGTA registered a binding signal of 0.123 E-score.

AAGGGTGC showed a binding signal of -0.165 E-score.

GTTCGACA displayed a binding signal of 0.0856 E-score.

Regarding CCATTAAG, the binding signal was 0.018 E-score.

Consider AGGCCCAT, for which the binding signal was -0.253 E-score.

In the case of CCATTAAA, the binding signal is -0.149 E-score.

Take CAGTTTCA: the binding signal was -0.125 E-score.

Regarding GCATTGCC, the binding signal was -0.0711 E-score.

Sequence ACCCAAGT showed a binding signal of 0.0146 E-score.

For CTGCTCTC, the binding signal is -0.267 E-score.

As to CCAAGTCA, the binding signal was -0.124 E-score.

GGCGTCTA showed a binding signal of -0.241 E-score.

Sequence CGAGTGCC registered a binding signal of -0.177 E-score.

Take TTCAGGAA: the binding signal was found to be 0.0402 E-score.

The sequence ACTGCGGG yielded a binding signal of -0.0383 E-score.

In turn, AGCTGAGA registered a binding signal of -0.152 E-score.

Sequence ACAACCGC gave a binding signal of -0.0249 E-score.

For the sequence AGATATAG, the binding signal was found to be 0.188 E-score.

Sequence AGCACAGG displayed a binding signal of -0.194 E-score.

The sequence CGGCGTAG yielded a binding signal of -0.0754 E-score.

CGGACATC: the binding signal is -0.0996 E-score.

With AACCACTT, the binding signal was -0.00419 E-score.

As to TATCGTCA, the binding signal stood at 0.0192 E-score.

As to CTTGGAGC, the binding signal was -0.184 E-score.

Regarding TGCCGGAA, the binding signal worked out at 0.00624 E-score.

In turn, ATGGGTCC gave a binding signal of -0.21 E-score.

In turn, TCCATCCA displayed a binding signal of 0.0675 E-score.

CGTCCACC: the binding signal was -0.198 E-score.

With GACTGCTC, the binding signal is -0.224 E-score.

In turn, AGTTGGTA had a binding signal of 0.213 E-score.

In turn, AAGAGCGA showed a binding signal of -0.109 E-score.

CTGCTTCA came in with a binding signal of -0.199 E-score.

Sequence AGGTTTCA showed a binding signal of -0.208 E-score.

On to AGCATACA, for which the binding signal is -0.095 E-score.

As for AGCTTTGC, the binding signal was -0.234 E-score.

Sequence CATGCTTA yielded a binding signal of 0.0132 E-score.

For CCTAGGTA, the binding signal stood at 0.144 E-score.

Turning to CCGGATCC, the binding signal is -0.266 E-score.

As to TATAGACA, the binding signal was determined as 0.00807 E-score.

The sequence ACTACGAA gave a binding signal of 0.163 E-score.

ACCATACA yielded a binding signal of 0.0658 E-score.

With ATAAATCA, the binding signal is -0.0059 E-score.

For the origin of these results see article PMC6212790.
